What all share (type): binding
For one assay, the target named is T1, hPD-L2 (Homo sapiens, UniProt Q9BQ51).
T1 construct: purchased R&D Systems 1224-PL-100
T1 sequence (Q9BQ51 20-273): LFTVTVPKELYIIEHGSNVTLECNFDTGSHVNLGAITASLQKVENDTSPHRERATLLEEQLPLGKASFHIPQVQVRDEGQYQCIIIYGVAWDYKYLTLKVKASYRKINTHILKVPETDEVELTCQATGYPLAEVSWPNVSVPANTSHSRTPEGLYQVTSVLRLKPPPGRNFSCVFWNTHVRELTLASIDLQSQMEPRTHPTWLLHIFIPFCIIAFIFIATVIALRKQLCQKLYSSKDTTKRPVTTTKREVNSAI
In words: ELISA specificity test against biotinylated control protein hPD-L2. The following applies: control protein added at 8 nM. As for the experimental part: (§1) The binding of Z variants to hPD-L1 was analyzed in ELISA assays. Half-area 96-well ELISA plates (Costar, cat. no. 3690) were coated at 4° C. overnight with 2 μg/ml of an anti-ABD goat antibody (produced in-house) diluted in coating buffer (50 mM sodium carbonate, pH 9.6; Sigma, cat. no. C3041). The antibody solution was poured off and the wells were washed in water and blocked with 100 μl of PBSC (PBS supplemented with 0.5% casein; Sigma, cat. no. C8654) for 1 to 3 h at RT. The blocking solution was discarded and 50 μl periplasmic solutions, diluted 1:1 with PBST 0.05%, were added to the wells and incubated for 1.5 to 2.5 h at RT under slow agitation. As a blank control, PBST 0.05% was added instead of a periplasmic sample. The supematants were poured off and the wells were washed 4 times with PBST 0.05%. Then, 50 μl of biotinylated hPD-L1 at a concentration of 0.32 nM in PBSC was added to each well. The plates were incubated for 1.0 h at RT followed by washes as described above. Streptavidin conjugated HRP (Thermo Scientific, cat no. N100) diluted 1:30,000 in PBSC, was added to the wells and the plates were incubated for approximately 1 h. After washing as described above, 50 μl ImmunoPure TMB substrate (Thermo Scientific, cat no. 34021) was added to the wells and the plates were treated according to the manufacturers recommendations. The absorbance at 450 nm was measured using a multi-well plate reader, Victor^3 (Perkin Elmer).
(§2) A selection of PD-L1 binding Z variants was subjected to an analysis of the response against a dilution series of biotinylated hPD-L1 following the procedure described above. The Z variants, Z13166 (SEQ ID NO:1), Z13359 (SEQ ID NO:3) and Z13398 (SEQ ID NO:4) were diluted 1:1 in PBST 0.05% and biotinylated hPD-L1 was added at a concentration of 40 nM and diluted stepwise 1:4 down to 32 μM. […] Data were analyzed using GraphPad Prism 5 and non-linear regression and EC50 values (the half maximal effective concentration) were calculated.

Another assay addresses T2, hB7-H3 (Homo sapiens, UniProt Q5ZPR3).
T2 construct: purchased R&D Systems 1027-B3-100
T2 sequence (Q5ZPR3 29-245 isoform Q5ZPR3-2 limits assumed): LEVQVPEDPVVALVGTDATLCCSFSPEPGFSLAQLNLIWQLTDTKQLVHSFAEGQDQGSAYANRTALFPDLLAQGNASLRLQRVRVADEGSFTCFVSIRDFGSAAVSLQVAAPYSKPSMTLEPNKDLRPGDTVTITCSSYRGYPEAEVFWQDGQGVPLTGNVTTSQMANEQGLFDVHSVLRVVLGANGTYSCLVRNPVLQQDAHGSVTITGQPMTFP
In words: ELISA specificity test against biotinylated control protein hB7-H3. As to conditions: control protein added at 8 nM. Here is the method:
as §1, §2
For orientation: In an ELISA, binding on a coated surface is turned into a signal by an enzyme label.

The next assay concerns the target T3, hPD-L1 (Homo sapiens, UniProt Q9NZQ7).
T3 construct: purchased R&D Systems 156-B7-100
Briefly: ELISA titration (EC50 analysis) against biotinylated hPD-L1. The following applies: FIG. 2; periplasm samples. As for the experimental part: as §1, §2

T3 sequence (Q9NZQ7 19-239 limits assumed): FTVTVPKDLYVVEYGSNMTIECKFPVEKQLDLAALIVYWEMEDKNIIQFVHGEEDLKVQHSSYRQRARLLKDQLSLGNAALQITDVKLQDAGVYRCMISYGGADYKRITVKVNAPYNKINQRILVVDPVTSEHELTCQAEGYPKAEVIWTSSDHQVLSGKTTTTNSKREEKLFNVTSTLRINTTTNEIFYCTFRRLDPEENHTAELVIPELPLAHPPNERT

As for “Z13359: PD-L1 binding Z variant, 58 amino acid residues, SEQ ID NO:3; tested as ABD fusion or His6-tagged (VDAKYAKERTIAVWEIMDLPNLTSWQRGAFIDKLHDDPSQSSELLSEAKKLNDSQAPK; Engineered PD-L1 binding polypeptide)”, the “response against hPD-L2 in ELISA” value in the assay with hPD-L2 is listed as “no response”. The “response against hB7-H3 in ELISA” value in the assay with hB7-H3 is reported as “no response”. Moreover, the “binding to hPD-L1 in ELISA” value with hPD-L1 is “bind”.
In the case of “Z13166: PD-L1 binding Z variant, 58 amino acid residues, SEQ ID NO:1; tested as ABD fusion or His6-tagged (VDAKYAKERTVAVWEIVQLPNLTAWQKGAFINKLHDDPSQSSELLSEAKKLNDSQAPK; Engineered PD-L1 binding polypeptide)”, the “response against hPD-L2 in ELISA” value with hPD-L2 is given as “no response”. Also, the “response against hB7-H3 in ELISA” value with hB7-H3 is recorded as “no response”. Besides, the “binding to hPD-L1 in ELISA” value with hPD-L1 is recorded as “bind”.
As to “Z13398: PD-L1 binding Z variant, 58 amino acid residues, SEQ ID NO:4; tested as ABD fusion or His6-tagged (VDAKYAKERTMATWEIVQLPNLTARQKGAFIWKLHDDPSQSSELLSEAKKLNDSQAPK; Engineered PD-L1 binding polypeptide)”, the “response against hPD-L2 in ELISA” value with hPD-L2 is given as “no response”. Also, in the assay with hB7-H3, the “response against hB7-H3 in ELISA” value was “no response”. Besides, in the assay with hPD-L1, the “binding to hPD-L1 in ELISA” value is listed as “bind”.
